Our source for the viscosity values is the CheMixHub viscosity set.

± gives the uncertainty stated by the source. For part of its entries the source gives two or more results. The other results are left out here. An entry can have further records. The values listed for one entry are repeated measurements in other runs, samples, wells, individuals or studies. Marks in square brackets tell the records apart. The letters are not those of the source and start again with each entry. Marks such as (2×) give the number of equal values in this list.

Consider `CCCCCCCCCC`, for which the viscosity reads like this: (298.15 K, 101 kPa) 0.86 ± 0.04 mPa·s [study A] and 0.8372 ± 0.013 mPa·s [study B] and 0.8372 ± 0.0084 mPa·s [study C] and 0.86 ± 0.008 mPa·s [study D]; (298.15 K, 101.33 kPa) 0.8391 ± 0.0072 mPa·s [study A] and 0.831 ± 0.011 mPa·s [study B] and 0.832 ± 0.021 mPa·s [study C] and 0.8459 ± 0.022 mPa·s, 0.8459 ± 0.011 mPa·s [study D] and 0.844 ± 0.006 mPa·s [study E] and 0.844 ± 0.011 mPa·s [study F] and 0.848 ± 0.011 mPa·s [study G] and 0.82 ± 0.015 mPa·s [study H]; (308.15 K, 101 kPa) 0.732 ± 0.011 mPa·s [study A] and 0.74 ± 0.006 mPa·s [study B] and 0.7337 ± 0.009 mPa·s [study C] and 0.7371 ± 0.012 mPa·s [study D]; (308.15 K, 101.33 kPa) 0.721 ± 0.019 mPa·s [study A] and 0.733 ± 0.005 mPa·s [study B] and 0.733 ± 0.011 mPa·s [study C] and 0.74 ± 0.01 mPa·s [study D] and 0.711 ± 0.011 mPa·s [study E].

For the compound `CS(C)=O`, the viscosity runs as follows: (293.15 K, 101 kPa) 2.226 ± 0.029 mPa·s [study A] and 2.27 ± 0.05 mPa·s [study B] and 2.2 ± 0.019 mPa·s [study C] and 2.191 ± 0.07 mPa·s [study D] and 2.18 ± 0.03 mPa·s [study E] and 2.184 ± 0.057 mPa·s [study F] and 2.184 ± 0.022 mPa·s [study G] and 2.23 ± 0.06 mPa·s [study H]; (293.15 K, 101.33 kPa) 2.48 ± 0.05 mPa·s, 2.479 ± 0.051 mPa·s [study A] and 2.244 ± 0.067 mPa·s [study B] and 2.194 ± 0.1 mPa·s [study C]; (303.15 K, 101 kPa) 1.79 ± 0.02 mPa·s, 1.729 ± 0.044 mPa·s, 1.7 ± 0.021 mPa·s, 1.73 ± 0.02 mPa·s, 1.794 ± 0.011 mPa·s, 1.786 ± 0.022 mPa·s, 1.791 ± 0.017 mPa·s, 1.79 ± 0.05 mPa·s, 1.784 ± 0.023 mPa·s, 1.7 ± 0.015 mPa·s, 1.55 ± 0.15 mPa·s, 1.732 ± 0.056 mPa·s [several studies]; (303.15 K, 101.33 kPa) 1.79 ± 0.07 mPa·s [study A] and 2.025 ± 0.042 mPa·s [study B] and 1.778 ± 0.018 mPa·s [study C] and 1.662 ± 0.011 mPa·s [study D]; (308.15 K, 101 kPa) 1.69 ± 0.07 mPa·s [study A] and 1.48 ± 0.14 mPa·s [study B] and 1.631 ± 0.016 mPa·s [study C] and 1.554 ± 0.05 mPa·s [study D] and 1.69 ± 0.04 mPa·s [study E] and 1.59 ± 0.01 mPa·s [study F] and 1.563 ± 0.04 mPa·s [study G]; (308.15 K, 101.3 kPa) 1.601 ± 0.042 mPa·s, 1.604 ± 0.042 mPa·s [study A] and 1.63 ± 0.039 mPa·s, 1.63 ± 0.077 mPa·s [study B]. Also, the viscosity is 1.5 ± 0.03 mPa·s, 1.448 ± 0.037 mPa·s, 1.498 ± 0.015 mPa·s, 1.498 ± 0.02 mPa·s, 1.55 ± 0.06 mPa·s, 1.39 ± 0.13 mPa·s, 1.49 ± 0.03 mPa·s, 1.555 ± 0.02 mPa·s, 1.427 ± 0.046 mPa·s [several studies] (313.15 K, 101 kPa); 1.42 ± 0.06 mPa·s [study A] and 1.31 ± 0.13 mPa·s [study B] and 1.27 ± 0.041 mPa·s [study C] and 1.42 ± 0.03 mPa·s [study D] and 1.42 ± 0.03 mPa·s [study E] and 1.342 ± 0.034 mPa·s [study F] (318.15 K, 101 kPa); 1.32 ± 0.06 mPa·s [study A] and 1.27 ± 0.017 mPa·s [study B] and 1.311 ± 0.017 mPa·s [study C] and 1.19 ± 0.03 mPa·s [study D] and 1.27 ± 0.034 mPa·s [study E] and 1.27 ± 0.012 mPa·s [study F] and 1.278 ± 0.016 mPa·s [study G] (323.15 K, 101 kPa).

As for `CCCCCCCO`, the viscosity (303.15 K, 101.33 kPa) is 4.771 ± 0.21 mPa·s [study A] and 4.995 ± 0.22 mPa·s [study B] and 4.785 ± 0.029 mPa·s [study C] and 4.759 ± 0.055 mPa·s [study D] and 4.785 ± 0.036 mPa·s [study E] and 4.785 ± 0.053 mPa·s [study F] and 4.783 ± 0.054 mPa·s, 4.681 ± 0.053 mPa·s [study G]; the viscosity (313.15 K, 101.33 kPa) is 3.579 ± 0.023 mPa·s [study A] and 3.579 ± 0.027 mPa·s [study B] and 3.671 ± 0.085 mPa·s [study C] and 3.671 ± 0.028 mPa·s [study D] and 3.579 ± 0.041 mPa·s (2×) [study E].

As usually defined, the viscosity is the resistance of a fluid to flow. Read a low viscosity as easy flow.
